# In PubChem BioAssay AID1347120 (National Center for Advancing Translational Sciences (NCATS), 2019):
# About 930 (0.24%) of roughly 390,000 compounds were called active. This list was built around the results that the source calls inconclusive (neither active nor inactive); the mix of calls is not that of the screen. Calls follow the shape of the dose curve; as a rule, active = well fitted activation curve with a large enough effect; inconclusive = small, poorly fitted or top-dose-only effect; inactive = no such curve, though single readings can be large or run the other way. Where the call is inconclusive, the potency comes from a doubtful curve fit.
# Assay: qHTS for Suppressors of FUS Proteinopathy: Primary screen using FUS-linked yeast assay; also: nearly all actives have a fitted effect of over 55% in size;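 as to growth rescue (activation): plate controls were DMSO vehicle for no effect and reference control for full effect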
# Conditions: S. cerevisiae FUS-expressing, OD600, 24 h; Potency: growth rescue; growth rescue (activation): at 76.6 µM (top of the series)
# Outline: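 Cultures pregrown in 2.5% raffinose medium are shifted to minimal medium containing 2% galactose to express toxic FUS. Compounds are tested at several concentrations. After 24hr at 30C, growth is quantified at 600 nm absorbance.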
# Potency is read from the fitted curve at half-maximal effect; tags tell the direction and shape of the fitted curve.
Structure (SMILES),growth rescue (activation),Potency
Nc1nc(SCc2ccccc2)sc1C(=O)N1CCCCC1,inactive: 16.3%,
COc1cc(NC(=O)c2ccc3c(SCC(=O)O)c4c(nc3c2)CCCC4)cc(OC)c1OC,,"inconclusive: 17.8 µM [activator, single point]"
CCOC(=O)c1sc(NC(=O)CN(CC)CC)c(C(=O)OCC)c1C,inactive: 1.18%,
COC(=O)[C@@]1(Cc2ccc(F)cc2)[C@H]2c3cc(C(=O)N4CCCC4)n(Cc4ccc(C)o4)c3C[C@H]2CN1C(=O)c1ccccc1,,"inconclusive: 50.1 µM [activator, single point]"
COc1ccc(NC(=O)CC2C(=O)N(CCc3ccccc3)C(=S)N2Cc2cccnc2)cc1 (stereo not drawn),,"inconclusive: 20 µM [activator, partial curve, poor fit]"
O=C(Nc1cccc2cccnc12)c1ccc(Cl)cc1Cl,inactive: 34.1%,
COc1cc(C(O)c2nc(-c3ccc4ccccc4c3)cs2)ccc1F (stereo not drawn),inactive: 30.3%,
Cc1cccc(-c2csc(N)c2C(=O)OC(C)C)c1,inactive: 17.9%,
Cc1cc(F)ccc1NC(=O)C1CCCN(C(=O)c2cnn(-c3ccccc3)c2-n2cccc2)C1 (stereo not drawn),,"inconclusive: 17.8 µM [activator, partial curve, poor fit]"
C[C@H](CO)N1C[C@H](C)[C@@H](CN(C)C(=O)C2CC2)OCc2cnnn2CCCC1=O,inactive: -31.6%,
COc1ccccc1C(=O)NC(CCSC)C(=O)Nc1ccc(C)c(S(=O)(=O)N2CCOCC2)c1 (stereo not drawn),,"inconclusive: 17.8 µM [activator, partial curve, poor fit]"
CCC(C)n1c(SCC(=O)Nc2cc(C(C)(C)C)nn2-c2ccccc2)nc2ccccc2c1=O (stereo not drawn),,"inconclusive: 25.1 µM [activator, single point]"
CCCC(=O)N1c2nc(-c3ccco3)nn2C2(CCCCC2)[C@@H]2CCCC[C@@H]21,,"inconclusive: 35.5 µM [activator, single point]"
Cn1c(Cc2cccc3ccccc23)nnc1SCc1ccc([N+](=O)[O-])cc1,,"inconclusive: 7.08 µM [activator, full curve, poor fit]"
CCC(=O)NC(=S)Nc1ccc2oc(-c3ccc(OC)cc3)nc2c1,inactive: -1.84%,
CC(=O)Oc1ccc(C(=O)Nc2ccc(C3(C#N)CCCC3)cc2)cc1,inactive: 5.79%,
Cc1ccc(S(=O)(=O)N2CCN(CC(=O)NC3CCCc4ccccc43)CC2)cc1C (stereo not drawn),,"inconclusive: 25.1 µM [activator, partial curve, poor fit]"
Cc1ccc(NS(=O)(=O)c2cccc3cccnc23)c(Br)c1,inactive: 16.9%,
COc1ccc(S(=O)(=O)N(CCc2ccccc2)CC(=O)Nc2cc(Cl)ccc2C)cc1,,"inconclusive: 14.1 µM [activator, partial curve, poor fit]"
NC(=O)c1c(NC(=O)CS(=O)(=O)c2ccc(Cl)cc2)sc2c1CCCC2,,"inconclusive: 39.8 µM [activator, partial curve, poor fit]"
Cc1ccc(S(=O)(=O)NCc2ccncc2)cc1,,"inconclusive: 35.5 µM [activator, single point]"

Structure (SMILES),growth rescue (activation),Potency
N#Cc1cccc(NC(=O)c2nc(-c3ccccc3)n(-c3ccccc3)n2)c1,,"inconclusive: 35.5 µM [activator, partial curve, poor fit]"
Cc1cc(-c2n[nH]c(=S)n2N=Cc2ccc(O)cc2)n[nH]1,inactive: -0.635%,
CN(Cc1ccc2c(c1)OCO2)C(=O)c1cc(-c2ccccc2)c(N2CCOCC2)s1,,"inconclusive: 28.2 µM [activator, partial curve]"
COc1cccc2c1nc(C)c1cc(C)oc12,inactive: 1.54%,
CCc1sc(Nc2ccc(C)cc2Br)nc1-c1cc2cccc(OC)c2oc1=O,inactive: -23.6%,
COc1ccc2oc(C(=O)OCC(=O)Nc3cc(S(=O)(=O)N4CCOCC4)ccc3OC)c(C)c2c1,inactive: 27.6%,
COc1ccc(-c2cn3c(C)c(C(=O)N4CCCc5ccccc54)sc3n2)cc1,,"inconclusive: 15.8 µM [activator, partial curve, poor fit]"
CCOC(=O)c1sc(N)c(C(=O)OCC)c1C,inactive: 3.66%,
Cc1ccc(CNC(=O)C(=O)c2cn(CC(=O)N3CCOCC3)c3ccccc23)cc1,,"inconclusive: 31.6 µM [activator, single point]"
Cn1ncc(Cl)c1C(=O)N1CCN(c2ccc(Cl)c(Cl)c2)CC1,,"inconclusive: 44.7 µM [activator, single point]"
Cc1ccc(C)c(CN2C(=O)c3ccccc3S(=O)(=O)c3ccc(C(=O)N4CCCC4)cc32)c1,,"inconclusive: 25.1 µM [activator, partial curve, poor fit]"
O=C(Nc1cc(S(=O)(=O)N2CCOCC2)ccc1N1CCOCC1)c1cccc(S(=O)(=O)N2CCCCC2)c1,,"inconclusive: 56.2 µM [activator, partial curve, poor fit]"
Cc1cc(Cl)c(S(=O)(=O)N2CCN(c3ccc(F)cc3)CC2)cc1OCC(=O)NC1CCCCC1,,"inconclusive: 11.2 µM [activator, partial curve, poor fit]"
CCOC(=O)[C@]12CCCC3=C1N(CCC3)C(=O)[C@@H](CC(=O)NCc1cccc(C(F)(F)F)c1)C2,inactive: 25.1%,
Cc1occc1-c1nnc(SCC(=O)c2c[nH]c3ccccc23)n1C,,"inconclusive: 17.8 µM [activator, partial curve]"
O=C(Nc1ccc(Cl)cc1)OCc1ccccn1,inactive: -0.955%,
Cc1ccc(S(=O)(=O)N2CCC(C(=O)OC(C)C(=O)NC3CCCCC3C)CC2)cc1C (stereo not drawn),,"inconclusive: 25.1 µM [activator, single point]"
Cn1c(=O)n(Cc2ccc(F)cc2)c(=O)c2c1nc1n2CCCN1Cc1ccccc1,,"inconclusive: 10 µM [activator, partial curve]"
C[C@H](CO)N1C[C@H](C)[C@@H](CN(C)C(=O)Nc2ccc(C(F)(F)F)cc2)Oc2c(NS(=O)(=O)c3ccccc3)cccc2C1=O,,"inconclusive: 35.5 µM [activator, single point]"
CCCN1Cc2cccc(C(=O)NC(CC(=O)OCC)c3ccc(OCC)c(OC)c3)c2C1=O (stereo not drawn),,"inconclusive: 35.5 µM [activator, single point]"
CCOC(=O)C1(C(=O)OCC)Cc2c([nH]c3ccccc23)[C@]2(N1)C(=O)N(C)c1ccc(Br)cc12,inactive: 5.09%,

Structure (SMILES),growth rescue (activation),Potency
NC(=O)c1ccsc1NC(=O)COC(=O)c1ccc([N+](=O)[O-])o1,inactive: -13.6%,
CN=c1scc(-c2ccccc2F)n1/N=C/c1ccc(O)c(O)c1O,,"inconclusive: 50.1 µM [activator, single point]"
CCOc1ccc(N=C(NN)c2ccc3ccccc3n2)cc1,,"inconclusive: 44.7 µM [activator, single point]"
CC(=O)Nc1cc(-c2cccc(NS(C)(=O)=O)c2)cn2c(-c3cccc(C(C)=O)c3)cnc12,,"inconclusive: 39.8 µM [activator, single point]"
Cc1ccc(N2CCN(C(=O)NCc3noc4ccccc34)CC2C)cc1 (stereo not drawn),inactive: 0.703%,
COc1ccccc1N1CCN(C(=O)Cn2nc(C(F)(F)F)c3c2CCC3)CC1,,"inconclusive: 50.1 µM [activator, single point]"
CC(=O)Nc1ccc(-c2ccnc3c2CC(C(=O)Nc2ccc4c(c2)OCO4)O3)cc1 (stereo not drawn),,"inconclusive: 25.1 µM [activator, single point]"
Cc1cc(C)nc(OC(C(=O)O)C(OCCc2ccccc2)(c2ccccc2)c2ccccc2)n1 (stereo not drawn),,"inconclusive: 39.8 µM [activator, single point]"
CC(C)(C)c1ccc(C(=O)NCC(c2cccs2)S(=O)(=O)c2ccc(F)cc2)cc1 (stereo not drawn),,active: 35.5 µM
CCC(C)C(NC(=O)c1ccccc1NC(=O)c1ccco1)C(=O)NC1CCCCC1 (stereo not drawn),,"inconclusive: 25.1 µM [activator, partial curve, poor fit]"
COc1ccc(OC)c(-n2c(SCC(=O)NCC3CCCO3)nc3ccccc3c2=O)c1 (stereo not drawn),inactive: 18.5%,
CC1CCN(S(=O)(=O)c2ccc(NC(=O)C3CSC4(C)CCC(=O)N34)cc2)CC1 (stereo not drawn),,"inconclusive: 28.2 µM [activator, partial curve, poor fit]"
CC(C)[C@H](NC(=O)OCc1ccccc1)C(=O)OCC(=O)NC1CCCCC1,,"inconclusive: 0.891 µM [activator, full curve, poor fit]"
O=C(COc1ccc(Br)cc1)N(Cc1nnc(-c2ccccc2Cl)o1)C1CC1,,"inconclusive: 31.6 µM [activator, partial curve]"
CC(=O)Nc1cc(-c2ccccc2N(C)C)cn2c(-c3ccc(S(C)(=O)=O)cc3)cnc12,,"inconclusive: 35.5 µM [activator, single point]"
CC[C@@]12C(=O)N(c3ccc(C)cc3)C(=O)N1[C@H](c1ccc(OC)cc1)[C@@H]1C(=O)N(C(C)(C)C)C(=O)[C@@H]12,,"inconclusive: 28.2 µM [activator, single point]"
CCCCCCCCCCOC(=O)Cn1c(COc2cccc(C)c2)[n+](C)c2ccccc21,,"inconclusive: 35.5 µM [activator, single point]"
CC(=O)NCCNc1nc2cc(-c3cccc(C(F)(F)F)c3)sc2c(=O)n1C,,"inconclusive: 25.1 µM [activator, single point]"
COc1ccc(C(=O)C2CCCN(C(=O)c3csc(SC)n3)C2)cc1F (stereo not drawn),inactive: 17%,
COc1ccc(/C=C2\SC(=S)N(CCCC(=O)N3CCOCC3)C2=O)cc1,,"inconclusive: 28.2 µM [activator, single point]"
COc1ccc(C2=NOC(Cn3nc(-c4ccccc4)cc3C(=O)NCc3ccccc3OC)C2)cc1 (stereo not drawn),,"inconclusive: 11.2 µM [activator, partial curve]"
